In the RNAGym collection of RNA variant scans (doi:10.7554/elife.90254) one finds self-cleavage data, which are given here for 56 variants.

Sequences and labels used below:
B1: LINE1-mini (parent)
chain: GGCAGAGCUCAACACAGCGUGGCAAAGUGGCUGUGGCUAGACUGCC

Read counts are not given, so values of variants with three or more changes are uncertain.

Variants of B1 are the subject of the data set. Briefly: self-cleavage, relative activity (ratio to wild type); higher = more cleavage; in vitro, sequencing; the parent is a self-cleaving ribozyme.
On to GGCAGAGCACAACACAGCGUUGCAAAGUGGCUGUGGCGAGACUGCC, for which the self-cleavage amounted to 0.17.

With GGCAGAGCCAAACACAGCGUGGCAAAGUGGCUGUUGCUAGACUGCC, the self-cleavage worked out at 0.04.

Turning to GGCAGAGCACAACACAGCGAGGCAUAGCAGCUGUGCCUAGACUGCA, the self-cleavage was determined as 0.25. On to GGCAGAGCCCAGCACAGCGUGGCAAAGUGGCUGUGGCUACACUGCC, for which the self-cleavage was found to be 0.01. Under GGCAGAGCACAACACAGCGCCGCAAAGUGGCUGUGGCUAGACUGCC stands 0.05; under GGCAGAGCCCGACACAGCGUGGCAAAUUGGCUGUGGCUAGACUGCC, 0.03; under GGCAGAGCACAACACAUCGUGGCAAAGUGGCUGUGGCUAGAUUGCC, 0.05.

For GGCAGAGCACAACACAGCGAGGCAAAGUGGCUGUGGAUAGACUGCC, the self-cleavage worked out at 0.09. Regarding GGCAGAGCACAACACAGCGUGUCAAAGAGGCUGUGGCUAGACUGCC, the self-cleavage came out at 0.05. On to GGCAGAGCCCAAGACAGCGUGGCCAAGGGUCAGUGGCUAGACUGCC, for which the self-cleavage came out at 0.01.

For the variant GGCAGAGCCCUCCACAGCGUGGCAAAGAGGCUGUGGCUAGAGUGCC, the self-cleavage was found to be 0.01. As for GGCAGAGCACAACACAGCGUGGCAAAGUGGCUAUGGCUAAACUGCC, the self-cleavage is 0.05. Turning to GGCAGAGCACAACACAGCGUAGCAAAGUGGCUGUGGCUAGAUUGCC, the self-cleavage was 0.67. Under GGCAGAGCCCUACACAGCGUGGCAAAGUGGCUGUUUCUGGACUGCC stands 0; under GGCAGAGCACAACACAACGUGGCAAAGUGGCUGUGGCUAGACUACC, 0.15.

In the case of GGCAGAGCACAACACAGCGUGGCAAAGUGUCUGUGGCUACACUGCC, the self-cleavage turned out to be 0.04. Consider GGCAGAGCCCGACACAGCGUGGCAAAGGGGCUGUGGCUAGACUGUA, for which the self-cleavage worked out at 0.01. On to GGCAGAGCACAACACAGUGUGGCAUAGUGGCUGUGGCUAGACUGCC, for which the self-cleavage amounted to 0.07.

In the case of GGCAGAGCACAACACAGCGUGGCAAAGUGGCAGUGGCUAGAGUGCC, the self-cleavage was 0.16. With GGCAGAGCACAACACAGCGUGGCAAAUUGGCUGAGGCUAGACUGCC, the self-cleavage came out at 0.26. In the case of GGCAGAGCACAACACAGCGUGGCAAAUUGGCUGUGGCUAGCCUGCC, the self-cleavage stood at 0.01. Regarding GGCAGAGCACAACACAGCGCGGCAAAGUGUCUGUGUCUAGACUGUC, the self-cleavage was 0.14. In the case of GGCAGAGCCCCACACAGCGUGGAAAAGUGGCUGUGGCUAGACUGCC it was 0.03; in that of GGCAGAGCCGAACACAGCGUGGCAAAGUGGCUGUGACUAGACUGCC, 0.01. For GGCAGAGCCCAAAACAGCGUCGCUAAGUGGCUGUGGCUAGACUGCC, the self-cleavage was 0.02.

Take GGCAGAGCACAACACAGCGUGGAAUAGUGGCUGUGGCUAGAGUGCC: the self-cleavage worked out at 0.06. In the case of GGCAGAGCACAACACAGCGUGGCAAAGUUGCUGUGGAUAGACUGCC, the self-cleavage was 0.39. With GGCAGAGCACAACACAGCGUUGCAAAGUGGCAGUGGCUAGAAUGCC, the self-cleavage amounted to 0.03. As to GGCAGAGCACAACACAGCGUCGCAAAGUGACUGUGGCUAGACUGCC, the self-cleavage worked out at 0.1.

On to GGCAGAGCCCAACACAGCGUGGCACAGUAGCUGUAGCUAGACUGCC, for which the self-cleavage stood at 0.02.

Consider GGCAGAGCACAACACAACGUGGCAAUGUGACUGUGGCUAUACUGCC, for which the self-cleavage is 0.06. For the variant GGCAGAGCACAACACACCGUGGCAAAGUGGCUGUGGGUAGACUGCC, the self-cleavage was found to be 0.05.

As for GGCAGAGCCCAACAAAGCGUGGCAACGUGUCUGUGACUAGACUGCC, the self-cleavage came to 0.01. Consider GGCAGAGCCCAACACGGCUUGGCAAAUUGGCUGUGACUAGACUGCC, for which the self-cleavage is 0.01. On to GGCAGAGCACAACACAACAUGGCAAAGUGGCUGUGGCUAGACUGCC, for which the self-cleavage was found to be 0.05. In the case of GGCAGAGCCUAACACAGCGUGGCUAAGUGGCUGUCGCUAGACUGCC it was 0.02. Consider GGCAGAGCACAACACAGCGUGGCAAACUGGCGGUGGCUCGACUGCC, for which the self-cleavage is 0.24. Take GGCAGAGCCCAAGACAGCGUGGCAAAGUGGAUGUGGCUAGACUGCC: the self-cleavage came to 0.02.

With GGCAGAGCACAACACAGCGUUGCAAAGUGGCUGUAGCUACACUGCA, the self-cleavage was 0.07. Regarding GGCAGAGCCCAACACCGCGCGGCAAAGUGGCUGUGGCUAGACUGCC, the self-cleavage came out at 0.03. Regarding GGCAGAGCCUAAAACGGCGUGGCAAAGUGGCUGGGGCUAGAUUGCC, the self-cleavage is 0. Under GGCAGAGCACAACACAGCGUGGCAAAGUGGCUGCGGCUAGACUACC stands 0.04. Turning to GGCAGAGCCCAACGCAGCGUGUCAAAGUGGCUGUGGCUAGACUGCC, the self-cleavage was 0.04. With GGCAGAGCCCAACACGGCGUGCCUAAGUGGCUGUGGCAAGACUGCG, the self-cleavage turned out to be 0. GGCAGAGCACAACACAGCGUGUCAAAGUGGGUGUGGCUAGACUUUC: the self-cleavage was 0.04.

As to GGCAGAGCCCAACCCAGUGUGGCAAAGUGGCUGUGGCUAGACUGCC, the self-cleavage was 0.01. With GGCAGAGCCCAACAAAGCGUGGCAAAGUGGCUGUGGCUAGAAUGCC, the self-cleavage is 0. With GGCAGAGCCAAACAGAGCGUGGCAAAGUGGCUGUGGCGAGACUGCC, the self-cleavage was 0. As to GGCAGAGCCCAACGCAUCGUGGCAAAGUGGCUGUGGCUAGACUGCC, the self-cleavage was 0.02.

For GGCAGAGCCCAACACAGCGUGGCAAAGUGGCUGUGGCUAGGCUGCG, the self-cleavage amounted to 0.01. In the case of GGCAGAGCCCUACACAGAGUGGCAAAGUGGCUGUGGUUAUACUGCC it was 0.03; in that of GGCAGAGCACAACACAGCGUGGCAAAGUGGCUUUGGCUAGACAGCC, 0.33; in that of GGCAGAGCCCAACACAGCGUGGCCAAGUGACUGUGACUUGACUGCC, 0.03.

Regarding GGCAGAGCACAACACAGCGUGGCAAAGUUGUUGUGGCUAGACUGCC, the self-cleavage was 0.05.

GGCAGAGCCCAGCACAGCGAGGCAAAGUGGCUGUGGCUAGCCUGCC: the self-cleavage was 0.01.

Regarding GGCAGAGCACAACACAGCCUGGCAAAGUGGCUGUGGCUAGACUCCC, the self-cleavage came out at 0.03.
